Out of some 4,800 compounds screened, about 410 (8.5%) showed an effect of 50% or more. This is one part of the list.
System: Plasmodium falciparum
Assay: Confirmatory screen in NF54 pLDH assay, in single point, at 2uM, 72h
Type: functional, Erythrocyte
Settings: timepoint 72 hour

| SMILES | % Inhibition |
| --- | --- |
| CCCC(CCC)C(=O)Nc1ccc(O)cc1C(=O)O | 14% |
| CCn1cc(NC(=O)CCn2ncc3c(Cl)cccc32)cn1 | -1% |
| O=C1OC2(c3ccccc31)C(c1ccccc1)CC(=O)N2Cc1ccccc1 (stereo not drawn) | -21% |
| CCOC(=O)NC(c1ccccc1F)C1CCCCC1=O (stereo not drawn) | 1% |
| CCc1cc(C(=O)N2CCCCCC2)c2c(C3CC3)nn(-c3ccc(F)cc3)c2n1 | 5% |
| Cn1ccnc1[C@@H](NC(=O)c1ccnn1C(F)F)C(C)(C)CO | 10% |
| O=C(Cc1ccc(Cl)cn1)Nc1ccnn1[C@H]1CCCc2ccccc21 | -12% |
| CCc1ccc(C2=C[C@@H](c3cccc(OC)c3)n3ncc(C(=O)Nc4ccc(C)cc4)c3N2)cc1 | 70% |
| Cc1cc(C)n2c(=O)c3ccccc3nc2c1C#N | -21% |
| CC1CCCC(N2C(=O)c3ccccc3C2NCc2ccccc2)C1C (stereo not drawn) | 14% |
| CC[C@H]1C(=O)NCCN1C(=O)c1cc(C)n[nH]1 | 13% |
| COc1cccc(-c2noc3nc(C)cc(C(=O)NCCCn4cccn4)c23)c1 | -2% |
| O=C1CCC(=O)N1c1cnn(Cc2ccccc2)c1 | 8% |
| Oc1cc(OCc2ccccc2F)ccc1-c1[nH]ncc1-c1ccccc1 | 72% |
| CCOc1c(CNC(C)(C)C)cccc1OC | -3% |
| CC1=NN(c2ccccc2)C(=O)[C@H]1N1C(=O)c2ccccc2C1=O | 5% |
| O=C(Nc1nccs1)C1C2CCC(O2)C1C(F)(F)F (stereo not drawn) | 9% |
| CC1CCN(Cc2ccc(CNCc3c[nH]nc3-c3ccc(F)cc3)cc2)CC1 | 50% |
| Cc1cccc(-c2nc(C[N+]3(Cc4nc(-c5cccc(C)c5)oc4C)CCCC3)c(C)o2)c1 | 55% |
| O=C(O)c1ccc(-c2n[nH]c(=O)c3c2CCCC3)cc1 | -6% |
| Oc1ccc([C@@H](c2cn(-c3nc(-c4ccc(Cl)cc4)cs3)nc2-c2ccccc2)c2c(-c3ccccc3)nn(-c3nc(-c4ccc(Cl)cc4)cs3)c2O)cc1 | 13% |
| CC(C)Cc1cc(C(=O)N2CCc3c(C#N)cccc32)cc(O)n1 | -4% |
| COc1ccc(-c2cc3ncc(C(=O)c4cc(Cl)ccc4O)cn3n2)cc1 | 78% |
| CCN(C)C1(CNC(=O)c2ccc(-c3cc(F)ccc3O)cc2)CCCC1 | 11% |
| CCn1nccc1CN(C)C(=O)c1cc(C)c(C)s1 | 9% |
| CC1=C(C(=O)Nc2cccc(Cl)c2)[C@H](c2csnn2)NC(=O)N1 | -19% |

| SMILES | % Inhibition |
| --- | --- |
| Cc1cccc(Oc2cc(N)cc(Oc3cccc(C)c3)c2)c1 | 8% |
| CN1CCc2ncnc(Nc3ccc4nc(N5CCCC5)sc4c3)c2C1 | 3% |
| Cc1ccc2c(-c3ccccc3)c(-c3nnnn3-c3ccccc3)cnc2c1 | -12% |
| Cc1[nH]n(-c2nc(C(F)(F)F)cc(=O)[nH]2)c(=O)c1CCO | -9% |
| CC(C)n1nccc1NC(=O)c1c[nH]c2ccc(F)cc2c1=O | -4% |
| CC1=NN(c2ccccc2)C(O)C1C(c1ccccc1O)C1C(C)=NN(c2ccccc2)C1O (stereo not drawn) | 13% |
| CCOC(=O)c1c(C(F)(F)F)[nH]n2c(C(F)F)nnc12 | 8% |
| Cc1nn(Cn2cc(NC(=O)c3ccc(COc4ccc(F)cc4F)o3)cn2)c(C)c1Cl | 7% |
| CNC[C@H]1CCCN1C(=O)c1ccc(-c2noc(C(F)(F)F)n2)cc1 | 12% |
| CCC1CCCCC1N1CCC(NC(=O)C2CCOCC2)CC1 (stereo not drawn) | -19% |
| N#Cc1cccc(-c2n[nH]c3c2CN(c2ccc(-c4ccccc4)nn2)CC3)c1 | 100% |
| COc1cccc(CNC(=O)Nc2cc3c(cc2N2CCCCC2)n(C)c(=O)n3C)c1 | -6% |
| CCc1ncoc1C(=O)NCC(F)(F)c1cc(F)cc(F)c1 | -19% |
| O=C(N[C@@H](N1CCCCC1)C(Cl)(Cl)Cl)c1cccnc1 | 11% |
| CCc1cccc(NC(=O)N2CCN(C3=CC4=NC[C@H](C)N4C=N3)CC2)c1 | 46% |
| Nc1n[nH]c2ccc(C3OCCCO3)cc12 | 6% |
| Cn1cc(-c2noc(-c3ccc(C#N)cc3)n2)ccc1=O | 12% |
| O=C(Cn1cnc2cc3c(cc21)OCCCO3)Nc1ccc(F)cc1 | 13% |
| O=C(NCc1ccc2c(c1)OCO2)C(F)(F)C(F)(F)C(F)(F)C(F)(F)C(=O)NCc1ccc2c(c1)OCO2 | -19% |
| CCCC1(CNC(=O)Nc2nc(CS(C)(=O)=O)no2)CC1 | 6% |
| CCc1cc(C(=O)N(CC)c2ccccc2)c2c(C)noc2n1 | -6% |
| COc1ccc(Cl)cc1S(=O)(=O)c1cnc(N2CCOCC2)nc1N | 10% |
| Cc1ccc(C(=O)C[n+]2cc(-c3ccc(-c4ccccc4)cc3)n(C)c2N)cc1 | 4% |
| CCCN(Cc1cnn(C)c1)C(=O)NCc1ccc(C)nc1OC | -20% |
| COc1ccccc1CC(=O)NC[C@H](C)O | 14% |
| Cc1cc(Cl)ccc1S(=O)(=O)N[C@@H](C)C#N | 5% |

| SMILES | % Inhibition |
| --- | --- |
| COc1ccc(S(=O)(=O)N2CCC(c3cc(N)on3)CC2)cc1Cl | 40% |
| COc1cc(Cl)c(C)cc1NC(=O)c1nc2cc(C)c(C)cc2n(C)c1=O | -4% |
| Oc1ccc2ccccc2c1-c1nc2ncccn2c1Nc1ccc(Cl)cc1 | 9% |
| CC1CCN(C(=O)Cc2csc(NC(=O)c3cccc(O)c3)n2)CC(C)C1 (stereo not drawn) | 1% |
| COc1c(Br)cc(Br)cc1C(N)=O | 2% |
| COc1ccc(N=C2NC(=O)CC(=O)N2)cc1 | -3% |
| Cc1cccc(NC(=O)[C@@H](C#N)C(=O)c2ncoc2C)c1 | -17% |
| CC(C)O[C@@H]1CCN(C[C@H](O)c2ccc(C(F)(F)F)cc2)C1 | 42% |
| c1ccc(C2=NN(c3ccc(-c4cc(-c5ccccc5)[n+](-c5ccccc5)c(-c5ccccc5)c4)cc3)[C@H](c3ccccc3)C2)cc1 | 97% |
| COc1ccc(-n2nc(C(=O)N3CCN(c4ccccc4)CC3)c(=O)cc2OC)cc1 | 3% |
| CC(C)(C)CC(C)(C)N1C[C@@H](C(=O)O)CC1=O | -5% |
| COc1cccc(N2CCN(C(=O)c3cc4c(s3)CCN(C(C)=O)C4)CC2)c1 | 3% |
| Brc1ccc2sncc2c1 | 3% |
| CN([C@H]1CCCc2c1cnn2C)S(=O)(=O)CCN1CCCC1 | 15% |
| Cc1c(Cc2c(Cl)cccc2Cl)c(=O)ccn1[C@@H](C)c1ccccc1 | 6% |
| c1ccc(-c2noc(-c3ccc(NC4CCCCC4)nn3)n2)cc1 | 60% |
| Cc1c(C(=O)N2CCCCC2)cccc1N1CCNC1=O | -15% |
| COC[C@@H](C)CNc1nc(C)cc(C)n1 | -7% |
| COc1cc(N)c(NC(C)=O)cc1Cl | 7% |
| N#Cc1cc(C(=O)Nc2nccc3sccc23)c[nH]1 | -9% |
| N#Cc1ccc(O)c(NC(=O)c2snc(O)c2Cl)c1 | -3% |
| O=C(NCc1cccc(Cl)c1)[C@H]1CCCN(c2nc3cccnc3n(Cc3ccccc3)c2=O)C1 | -7% |
| COc1cc(CC2CN(C(=O)c3cscn3)C2)cc(OC)c1 | 3% |
| O=C(Nc1cccc(Cl)c1)c1ccc(-c2cnc(N3CCCC3)nc2)cc1 | -19% |
| Cc1c(-c2cc(-c3cnn(C)c3C)n(CC(=O)NC3CCCCC3)n2)cnn1C | 4% |
| COc1ccc(S(=O)(=O)N(c2onc(C)c2Cl)S(=O)(=O)c2ccc(OC)c(OC)c2)cc1OC | 4% |

| SMILES | % Inhibition |
| --- | --- |
| CC[C@@H](CO)NC(=O)Nc1cccc(C)c1 | 8% |
| COc1ccccc1N1C(=O)C2C(C)NC3(C(=O)N(Cc4ccc(F)cc4)c4ccccc43)C2C1=O (stereo not drawn) | 12% |
| C[C@H](OC1CCCCCC1)C(=O)Nc1nc(C(N)=O)cs1 | -11% |
| CCn1nccc1C(=O)NC1CCN(c2nnc3ccc(Cl)cn23)CC1 | 10% |
| CC(C)n1[nH]c(=O)c2c(C3CCCCC3)c3sc(=O)[nH]c3nc21 | -12% |
| O=S(=O)(c1ccc(CC(F)(F)F)cc1)N1CCOCC12CCC2 | -1% |
| Cc1ccc(-c2noc(CCC(=O)NCC(C)C)n2)c(=O)n1C(C)C | 3% |
| CC(N)C1CCN(c2cncc(OCC3CCCC3)n2)C1 (stereo not drawn) | 15% |
| CCCc1cc(-c2nc(-c3ccc(-n4nc(C)cc4N)cc3)no2)n(C)n1 | 88% |
| N#CC1(NC(=O)c2ccncc2Cl)CCCC1 | 11% |
| O=C(NOCc1ccc(F)cc1)NC1CCCCC1 | -10% |
| Cc1ncsc1COC(=O)c1ccnc(N(C)C)c1 | 10% |
| CC1CCC(N2CC(C(=O)N(C3CC3)C(C)C(C)C)CC2=O)CC1 (stereo not drawn) | 1% |
| C=CCOc1cc(C(=O)N2CCCCC2)cc2occc12 | 11% |
| Cc1c(Cl)cccc1NC(=O)[C@H]1CC(=O)N(c2ccc(OCc3ccccc3)cc2)C1 | 2% |
| CC(=O)c1cc(-c2cc(O)cc(CC[C@H]3CCCCN3)c2)ccc1O | 85% |
| Cc1cc(C)n(S(=O)(=O)c2cccc3cccnc23)n1 | -10% |
| Cc1cc(=O)n2ncc(C(=O)N3CCN(c4ccc(Cl)cc4)CC3)c2[nH]1 | -22% |
| O=C(N[C@@H]1CN(Cc2ccccn2)CCC[C@H]1O)c1ccc(OCc2ccccc2)cc1 | 42% |
| Cc1cc(-c2nnc3n2CC(C)(C)CC3)c(C)o1 | 10% |
| C[C@@H](CC(=O)O)N(C(N)=O)c1ccc(Nc2ccccc2)cc1 | 9% |
| COc1cc(Cl)cc2c1OC=CC(C(=O)Nc1ncc(Cc3ccccc3)s1)=C2 | 4% |
| Cc1ccc(S(=O)(=O)C[C@H](CN2CCN(C)CC2)N2CCN(C)CC2)cc1 | -5% |
| COc1ccc(CNC(=O)[C@H]2CN(C(=O)c3ccncc3)CC23CCCCC3)c(OC)c1 | -9% |
| c1ccc2cc(-c3ccc4ccccc4n3)ccc2c1 | 16% |
